Assay results reported in EP4603109A1, “ANTIBODY-DRUG CONJUGATE, PREPARATION METHOD THEREFOR, AND USE THEREOF” (priority 2022, dated 2024).
Like-named read-outs stand apart in the source and are kept apart here. Marks after values point to notes of the source that are not given here.

Legend:
[1] = test system: human gastric cancer cell NCI-N87; details: endocytosis, pHrodo, 24 h, Median YL-1H
[2] = test system: human mammary squamous cancer cell HCC1806; details: cell binding, FACS Median PE
CHO-S-monkey B7-H3 = details: cell binding, FACS Median PE
[3] = test system: human gastric cancer cell NCI-N87; details: cell binding, FACS Median PE
[4] = test system: human breast squamous cell carcinoma cell HCC1806; assay: Tumor growth inhibition in subcutaneous HCC1806 mouse CDX model; assay type: in vivo, Balb/cNude mice; details: Day 14, 3 mg/kg i.v., 1 dose on Day 0
[5] = test system: human mammary squamous carcinoma cell HCC1806; details: endocytosis, pHrodo, 24 h, Median YL-1H
CHO-S-human B7-H3-2Ig = CHO-S-human B7-H3-2Ig (Homo sapiens, UniProt Q5ZPR3); details: cell binding, FACS Median PE
CHO-S-human B7-H3-2Ig, sequence (Q5ZPR3 29-316 isoform Q5ZPR3-2 limits assumed): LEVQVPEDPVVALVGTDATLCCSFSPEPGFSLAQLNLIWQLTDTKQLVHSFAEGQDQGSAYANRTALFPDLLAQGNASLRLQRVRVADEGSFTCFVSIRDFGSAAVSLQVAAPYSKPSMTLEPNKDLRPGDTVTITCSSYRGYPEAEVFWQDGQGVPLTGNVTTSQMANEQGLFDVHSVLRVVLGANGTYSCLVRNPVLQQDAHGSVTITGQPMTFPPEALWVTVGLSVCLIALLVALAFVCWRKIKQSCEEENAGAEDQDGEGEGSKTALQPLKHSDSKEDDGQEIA

[6] = Hydrophilicity detection (TSKgel Butyl-NPR column); assay type: physicochemical; details: (retention time of sample - hydrophilic control)/(hydrophobic control - hydrophilic control); smaller = more hydrophilic
[7] = test system: Human breast squamous carcinoma cell line HCC1806; assay: Efficacy of different doses of ADCs in HCC1806 model; assay type: in vivo; details: HCC1806 mouse; for TGI (%): VP27
[8] = test system: human non-small cell lung cancer cell HCC827; assay: Cell affinity by flow cytometry; details: cell binding, FACS Median PE
CHO-S-human B7-H3-4Ig = CHO-S-human B7-H3-4Ig (Homo sapiens, UniProt Q5ZPR3); details: cell binding, FACS Median PE
CHO-S-human B7-H3-4Ig, sequence (Q5ZPR3 29-534): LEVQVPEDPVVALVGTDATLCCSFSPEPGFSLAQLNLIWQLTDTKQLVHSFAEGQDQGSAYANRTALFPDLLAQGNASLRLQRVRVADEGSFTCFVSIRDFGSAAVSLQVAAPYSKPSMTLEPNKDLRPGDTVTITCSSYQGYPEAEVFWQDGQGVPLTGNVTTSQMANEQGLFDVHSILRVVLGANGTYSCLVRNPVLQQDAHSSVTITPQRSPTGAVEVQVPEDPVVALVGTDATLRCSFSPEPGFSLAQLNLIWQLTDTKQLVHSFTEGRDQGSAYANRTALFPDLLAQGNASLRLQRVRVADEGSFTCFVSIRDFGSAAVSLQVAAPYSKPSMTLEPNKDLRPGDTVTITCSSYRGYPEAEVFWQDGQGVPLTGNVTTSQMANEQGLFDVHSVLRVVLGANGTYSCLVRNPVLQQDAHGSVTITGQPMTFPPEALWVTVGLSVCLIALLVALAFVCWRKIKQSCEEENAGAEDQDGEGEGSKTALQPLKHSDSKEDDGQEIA

[9] = test system: Human gastric cancer cells NCI-N87; assay: Efficacy of different ADCs in NCI-N87 model; assay type: in vivo; details: NCI-N87 mouse, 5 mg/kg i.v., QW, twice
[10] = test system: Human breast squamous carcinoma cell line HCC1806; assay: In vivo efficacy of different conjugates of 2#8890 in HCC1806 model; details: HCC1806 mouse
[11] = Repeated dose toxicity test; assay type: in vivo; details: cynomolgus monkeys
rat B7-H3-his = molecular target: T1, rat B7-H3-his (Rattus norvegicus, UniProt Q7TPB4); assay: Dynamic affinity by ForteBio (BLI); assay type: binding; details: Protein A sensor, 1:1 global fitting
T1 construct: His
T1 sequence (Q7TPB4 29-316): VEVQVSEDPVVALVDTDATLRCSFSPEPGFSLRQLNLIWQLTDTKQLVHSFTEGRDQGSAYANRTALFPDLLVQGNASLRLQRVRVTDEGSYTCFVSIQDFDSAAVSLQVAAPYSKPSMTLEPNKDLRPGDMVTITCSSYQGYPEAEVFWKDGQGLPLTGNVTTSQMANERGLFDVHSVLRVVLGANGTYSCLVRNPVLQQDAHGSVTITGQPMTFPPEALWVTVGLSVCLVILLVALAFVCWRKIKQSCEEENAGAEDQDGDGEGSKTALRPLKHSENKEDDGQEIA

CHO-S-rat B7-H3 = CHO-S-rat B7-H3 (Rattus norvegicus, UniProt Q7TPB4); details: cell binding, FACS Median PE
[12] = test system: human colon cancer cell HT29; assay: Cell affinity by flow cytometry; details: cell binding, FACS Median PE
[13] = test system: human non-small cell lung cancer cell HCC827; details: endocytosis, pHrodo, 24 h, Median YL-1H
[14] = parameters: species or system cynomolgus monkeys; details: cynomolgus monkey, in vivo, iv, 50 mg/kg
CD32a = molecular target: T2, CD32a (Homo sapiens, UniProt P12318); assay: Binding affinity to Fc receptors by ForteBio; details: SA sensor, biotinylated receptor, 1:1 fitting
T2 sequence (P12318 34-317): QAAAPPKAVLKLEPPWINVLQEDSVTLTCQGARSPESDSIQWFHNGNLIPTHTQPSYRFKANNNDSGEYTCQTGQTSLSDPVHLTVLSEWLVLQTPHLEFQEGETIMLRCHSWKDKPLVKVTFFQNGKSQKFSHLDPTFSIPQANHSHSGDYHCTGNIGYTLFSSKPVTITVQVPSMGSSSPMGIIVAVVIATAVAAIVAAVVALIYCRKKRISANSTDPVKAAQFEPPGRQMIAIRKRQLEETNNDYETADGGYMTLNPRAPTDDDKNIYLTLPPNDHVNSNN

[15] = i.v. 30 mg/kg QW x2, then 50 mg/kg QW x2

B1: ADC 5 (conjugate)
heavy: QVQLQESGPGLVQPSGTLSLTCAVSGGSDSSTNWWTWVRQSPGQGLEWIGEISPIGFTSYSPSLRSRVTISVDKSKTQFSLKLSSVTAADTAVYYCARDRLYFAFWGQGTLVTVSSASTKGPSVFPLAPSSKSTSGGTAALGCLVKDYFPEPVTVSWNSGALTSGVHTFPAVLQSSGLYSLSSVVTVPSSSLGTQTYICNVNHKPSNTKVDKKV[human IgG1 Fc with L234A L235A G237A (EU numbers) left out here]
light: EIVMTQSPATLSVSPGERATLSCRASQSVSSNLAWYQQKPGQAPRLLIYGASTRATGIPDRFSGSGSGTEFTLTISSLESEDFAVYYCQQYNNWPITFGQGTRLEIKRTVAAPSVFIFPPSDEQLKSGTASVVCLLNNFYPREAKVQWKVDNALQSGNSQESVTEQDSKDSTYSLSSTLTLSKADYEKHKVYACEVTHQGLSSPVTKSFNRGEC
- EC50(ng/ml) NCI-N87 [1]: 7.984 ng/mL
- EC50(ng/ml) HCC1806 [2]: 3.129 ng/mL
- EC50 (ng/ml) CHOS-monkey B7-H3 (CHO-S-monkey B7-H3): 31.85 ng/mL
- EC50(ng/ml) NCI-N87 [3]: 2.329 ng/mL
- T/C (%) [4]: 16.99%
- TGI (%) [4]: 96.68%
- Tumor volume (mm^3) (x±SEM) [4]: 218.24±57.69 mm^3
- EC50(ng/ml) HCC1806 [5]: 10.91 ng/mL
- EC50 (ng/ml) CHOS-B7-H3-2Ig (CHO-S-human B7-H3-2Ig): 26.89 ng/mL
- Hydrophobicity value [6]: 1.36
- TGI (%) ([7]; 0.5 mg/kg i.v. once): 37.11%
- TGI (%) ([7]; 5 mg/kg i.v. once): 174.17* * %
- VP27 (mm^3, mean±SEM) ([7]; tumor volume, 5 mg/kg i.v. once): 44.57±7.16 mm^3
- EC50 (ng/ml) HCC827 [8]: 7.579 ng/mL
- EC50 (ng/ml) CHOS-B7-H3-4Ig (CHO-S-human B7-H3-4Ig): 41.48 ng/mL
- TGI (%) ([9]; VP42): 66.45** %
- VP42 (mm^3, mean±SEM) ([9]; tumor volume): 532.12±102.51 mm^3
- TGI (%) ([10]; 5 mg/kg i.v. once (DAR8 group), VP52): 195.97** %
- tumors of mice 95 days after a single dose ([10]; 5 mg/kg i.v. once, 95 days): completely disappeared
- VP52(mm^3, mean±SEM) ([10]; tumor volume, 5 mg/kg i.v. once (DAR8 group)): 6.10±3.98 mm^3
- findings during the recovery period ([11]; after 30 mg/kg QW x2 and 50 mg/kg QW x2): recovery trend
- findings during the administration period [11, 15]: loss of appetite, hair loss, skin pigmentation and weight loss
- haematology changes in female monkeys [11, 15]: WBC, NEUT, LYM, and MONO were reduced
- haematology changes in male monkeys [11, 15]: RBC, HGB, and HCT were reduced in male monkeys, and FGB was increased
- highest no serious toxicity dose (HNSTD) ([11]; i.v. 30 mg/kg once a week x2, then 50 mg/kg once a week x2): 50 mg/kg
- Rat B7-H3-his KD (M) (rat B7-H3-his): Not bond
- EC50 (ng/ml) CHOS-rat B7-H3 (CHO-S-rat B7-H3): Not bond
- EC50 (ng/ml) HT29 [12]: 2.335 ng/mL
- EC50 (ng/ml) HCC827 [13]: 9.835 ng/mL
- CL F obs [14]: 347.008 L/h/kg
- KD (M) CD32a (CD32a): Not bond
